From the supplement of paper PMC8728848
This is one part of the list.

What was measured:
Assay in all cases: glycan array binding signal (z-score within array); higher = stronger binding
Settings in all cases: glycan notation: IUPAC condensed, linker removed
[1] = target: Fuc(a1-3)[Gal(b1-4)]GlcNAc(b1-4)Gal(b1-4)[Fuc(a1-3)]GlcNAc(b1-4)Gal(b1-4)[Fuc(a1-3)]GlcNAc
Outline: (§1)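 From the Consortium for Functional Glycomics database, 3228 arrays were curated, keeping only those whose protein sequence was available. Binding is given as a within-array Z-score averaged across arrays sharing a protein sequence and across linkers. Negative Z-scores can be read as non-binding.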

[2] = target: Fuc(a1-3)[Gal(b1-4)]GlcNAc(b1-6)GalNAc
Outline: as §1

[3] = target: Fuc(a1-3)[Gal(b1-4)]GlcNAc(b1-6)[Gal(b1-3)GlcNAc(b1-3)]Gal(b1-4)Glc
Outline: as §1

[4] = target: Fuc(a1-3)[Gal(b1-4)]GlcNAc(b1-6)[Neu5Ac(a2-3)Gal(b1-3)]GalNAc
Outline: as §1

[5] = target: Fuc(a1-3)[Gal(b1-4)]GlcNAc6S
Outline: as §1

[6] = target: Fuc(a1-3)[Gal3S(b1-4)]Glc
Outline: as §1

[7] = target: Fuc(a1-3)[Gal3S(b1-4)]GlcNAc
Outline: as §1

[8] = target: Fuc(a1-3)[Gal3S(b1-4)]GlcNAc6S
Outline: as §1

[9] = target: Fuc(a1-3)[GalNAc(b1-4)]GlcNAc
Outline: as §1

[10] = target: Fuc(a1-3)[GalNAc(b1-4)]GlcNAc6S
Outline: as §1

[11] = target: Fuc(a1-4)GlcNAc
Outline: as §1

[12] = target: Fuc(b1-3)GlcNAc
Outline: as §1

[13] = target: Gal(a1-2)Gal
Outline: as §1

[14] = target: Gal(a1-3)Gal
Outline: as §1

[15] = target: Gal(a1-3)Gal(b1-3)GlcNAc
Outline: as §1

[16] = target: Gal(a1-3)Gal(b1-3)GlcNAc(b1-2)Man
Outline: as §1

[17] = target: Gal(a1-3)Gal(b1-3)GlcNAc(b1-2)Man(a1-3)[Gal(a1-3)Gal(b1-3)GlcNAc(b1-2)Man(a1-6)]Man(b1-4)GlcNAc(b1-4)GlcNAc
Outline: as §1

[18] = target: Gal(a1-3)Gal(b1-3)GlcNAc(b1-3)GalNAc
Outline: as §1

[19] = target: Gal(a1-3)Gal(b1-3)GlcNAc(b1-6)GalNAc
Outline: as §1

[20] = target: Gal(a1-3)Gal(b1-3)[Fuc(a1-4)]GlcNAc(b1-2)Man(a1-3)[Gal(a1-3)Gal(b1-3)[Fuc(a1-4)]GlcNAc(b1-2)Man(a1-6)]Man(b1-4)GlcNAc(b1-4)GlcNAc
Outline: as §1

[21] = target: Gal(a1-3)Gal(b1-4)Glc
Outline: as §1

[22] = target: Gal(a1-3)Gal(b1-4)GlcNAc
Outline: as §1

[23] = target: Gal(a1-3)Gal(b1-4)GlcNAc(b1-2)Man
Outline: as §1

[24] = target: Gal(a1-3)Gal(b1-4)GlcNAc(b1-2)Man(a1-3)[Gal(a1-3)Gal(b1-4)GlcNAc(b1-2)Man(a1-6)]Man(b1-4)GlcNAc(b1-4)GlcNAc
Outline: as §1

[25] = target: Gal(a1-3)Gal(b1-4)GlcNAc(b1-3)GalNAc
Outline: as §1

[26] = target: Gal(a1-3)Gal(b1-4)GlcNAc(b1-6)GalNAc
Outline: as §1

[27] = target: Gal(a1-3)Gal(b1-4)[Fuc(a1-3)]GlcNAc
Outline: as §1

[28] = target: Gal(a1-3)Gal(b1-4)[Fuc(a1-3)]GlcNAc(b1-2)Man(a1-3)[Gal(a1-3)Gal(b1-4)[Fuc(a1-3)]GlcNAc(b1-2)Man(a1-6)]Man(b1-4)GlcNAc(b1-4)GlcNAc
Outline: as §1

[29] = target: Gal(a1-3)GalNAc
Outline: as §1

[30] = target: Gal(a1-3)[Gal(a1-4)]Gal(b1-4)GlcNAc
Outline: as §1

[31] = target: Gal(a1-4)Gal(b1-3)GlcNAc(b1-2)Man(a1-3)[Gal(a1-4)Gal(b1-3)GlcNAc(b1-2)Man(a1-6)]Man(b1-4)GlcNAc(b1-4)GlcNAc
Outline: as §1

[32] = target: Gal(a1-4)Gal(b1-4)Glc
Outline: as §1

[33] = target: Gal(a1-4)Gal(b1-4)GlcNAc
Outline: as §1

[34] = target: Gal(a1-4)Gal(b1-4)GlcNAc(b1-2)Man(a1-3)[Gal(a1-4)Gal(b1-4)GlcNAc(b1-2)Man(a1-6)]Man(b1-4)GlcNAc(b1-4)GlcNAc
Outline: as §1

[35] = target: Gal(a1-4)Gal(b1-4)GlcNAc(b1-3)Gal(b1-4)Glc
Outline: as §1

[36] = target: Gal(a1-4)GlcNAc
Outline: as §1

[37] = target: Gal(a1-6)Glc
Outline: as §1

[38] = target: Gal(b1-2)Gal
Outline: as §1

[39] = target: Gal(b1-3)Gal
Outline: as §1

[40] = target: Gal(b1-3)Gal(b1-4)GlcNAc
Outline: as §1

[41] = target: Gal(b1-3)Gal(b1-4)GlcNAc(b1-2)Man(a1-3)[Gal(b1-3)Gal(b1-4)GlcNAc(b1-2)Man(a1-6)]Man(b1-4)GlcNAc(b1-4)GlcNAc
Outline: as §1

[42] = target: Gal(b1-3)GalNAc
Outline: as §1

[43] = target: Gal(b1-3)GalNAc(a1-3)[Fuc(a1-2)]Gal(b1-4)Glc
Outline: as §1

[44] = target: Gal(b1-3)GalNAc(a1-3)[Fuc(a1-2)]Gal(b1-4)GlcNAc
Outline: as §1

[45] = target: Gal(b1-3)GalNAc(b1-3)Gal
Outline: as §1

B1: PA-IL (Pseudomonas aeruginosa), Q05097 (protein)
chain: MAWKGEVLANNEAGQVTSIIYNPGDVITIVAAGWASYGPTQKWGPQGDREHPDQGLICHDAFCGALVMKIGNSGTIPVNTGLFRWVAPNNVQGAITLIYNDVPGTYGNNSGSFSVNIGKDQS
- glycan array binding signal (z-score) [1]: -0.231
- glycan array binding signal (z-score) [2]: -0.208
- glycan array binding signal (z-score) [3]: -0.23
- glycan array binding signal (z-score) [4]: -0.22
- glycan array binding signal (z-score) [5]: -0.208
- glycan array binding signal (z-score) [6]: -0.225
- glycan array binding signal (z-score) [7]: -0.212
- glycan array binding signal (z-score) [8]: -0.224
- glycan array binding signal (z-score) [9]: -0.229
- glycan array binding signal (z-score) [10]: -0.227
- glycan array binding signal (z-score) [11]: -0.223
- glycan array binding signal (z-score) [12]: -0.219
- glycan array binding signal (z-score) [13]: 1.54
- glycan array binding signal (z-score) [14]: 1.68
- glycan array binding signal (z-score) [15]: 1.62
- glycan array binding signal (z-score) [16]: 2.61
- glycan array binding signal (z-score) [17]: 0.015
- glycan array binding signal (z-score) [18]: 0.581
- glycan array binding signal (z-score) [19]: 0.533
- glycan array binding signal (z-score) [20]: 0.34
- glycan array binding signal (z-score) [21]: 1.89
- glycan array binding signal (z-score) [22]: 5.08
- glycan array binding signal (z-score) [23]: 3.39
- glycan array binding signal (z-score) [24]: 6.97
- glycan array binding signal (z-score) [25]: 3.06
- glycan array binding signal (z-score) [26]: 3.31
- glycan array binding signal (z-score) [27]: 5.02
- glycan array binding signal (z-score) [28]: 1.82
- glycan array binding signal (z-score) [29]: 1.32
- glycan array binding signal (z-score) [30]: 6.55
- glycan array binding signal (z-score) [31]: 7.29
- glycan array binding signal (z-score) [32]: 2.27
- glycan array binding signal (z-score) [33]: 4.79
- glycan array binding signal (z-score) [34]: 8.23
- glycan array binding signal (z-score) [35]: 5.73
- glycan array binding signal (z-score) [36]: 3.63
- glycan array binding signal (z-score) [37]: 0.538
- glycan array binding signal (z-score) [38]: -0.12
- glycan array binding signal (z-score) [39]: -0.219
- glycan array binding signal (z-score) [40]: -0.173
- glycan array binding signal (z-score) [41]: 7.65
- glycan array binding signal (z-score) [42]: -0.229
- glycan array binding signal (z-score) [43]: -0.238
- glycan array binding signal (z-score) [44]: -0.23
- glycan array binding signal (z-score) [45]: -0.221
